SMILES strings stand for the structures. Values joined by “and” are separate entries in the source; they are usually repeats but may differ in a detail not shown here. Equal values may be shown once.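 Assay format: 96-well plates, 48-hour exposure. Abbreviation: GI50, concentration required for 50% inhibition of growth. TGI: concentration producing complete growth inhibition.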 A value given as a limit tells only on which side of the number the result lay.

The subject of this assay is NCI-H322M lung. Kind of assay: inhibition of tumour cell growth, NCI panel, 48 h.
Turning to `O=[N+]([O-])c1ccc(Oc2c(Cl)cc(S(=O)(=O)/N=C(\NO)Nc3ccc(Cl)cc3)cc2Cl)c(Cl)c1`, the TGI was 28 µM. The same measure, in the same setting: in the case of `O=C(NC(=O)c1ccccc1[N+](=O)[O-])Nc1ccc(Oc2ncc(Cl)cn2)c([N+](=O)[O-])c1` it was greater than 49.7 µM; in that of `Nc1nc(Cl)cc(NCC(O)CO)n1` (stereo not given), greater than 100 µM; in that of `CCN(CC)CCN(C(=Nc1ccccc1)N1CCCCC1)c1ccccc1`, 62.5 µM. Regarding `CCC1CCN=C(NS(=O)(=O)c2cc(C)c(Cl)cc2S)N1` (stereo not given), the TGI is greater than 100 µM. Still for that read-out and setting: the result for `COc1ccc(C2=C(N)c3c(Cl)cccc3C2=O)cc1` reads greater than 100 µM. Take `N/C(=N/N=C/c1ccccc1)N/N=C\c1ccccc1`: the GI50 was 14.3 µM and the TGI was greater than 100 µM. Taken in the same sequence, the figures for `CC[C@@]1(O)C(=O)OCc2c1cc1n(c2=O)Cc2cc3cccc([N+](=O)[O-])c3nc2-1` were 4.51 µM and 73.3 µM. As to `O=c1c2ccccc2nc2n1-c1ccccc1SC2`, the TGI was greater than 100 µM. The same measure, in the same setting: in the case of `O=C(O)C(C(=O)O)P(=S)(S)c1ccccc1` (stereo not given) it was greater than 100 µM. With `C#CCN(Cc1nc2cc(C(F)(F)F)ccc2nc1-c1ccccc1)c1ccc(C)cc1`, the GI50 was 19.8 µM and the TGI was greater than 45.7 µM.

For `Cc1cc(Nc2ncc3c(n2)N(C)C(=O)N(c2cc(NC(=O)c4cccc(C(F)(F)F)c4)ccc2C)C3)n(C)n1`, the GI50 was 0.0278 µM and the TGI was 0.118 µM.

With `COc1cc2cc(C(=O)Nc3cc4n(n3)-c3ccccc3C4)[nH]c2c(OC)c1OC`, the TGI was 15.4 µM. The same measure, in the same setting: in the case of `CC1CC/C(=C\c2ccc(N(C)C)cc2)C2=C1C(c1ccc(N(C)C)cc1)NC(=S)N2` (stereo not given) it was greater than 100 µM; in that of `CCSc1cc2c(cc1O)CC[C@@H]1[C@@H]2CC[C@]2(C)[C@@H](O)CC[C@@H]12`, 35 µM.

`CCOC(=O)C(N=C(c1ccccc1)c1ccccc1)N(C(=O)OC(C)(C)C)C(=O)OC(C)(C)C` (stereo not given) yielded a TGI greater than 100 µM.

`CC1(C)C2CC(O)C1CCC2=O` (stereo not given): the TGI was greater than 100 µM. The molecule `O=C(c1nc2ccccc2[nH]c1=O)C(O)c1ccco1` (stereo not given) displayed a TGI greater than 100 µM.

Take `Cc1nc(-c2nc(-c3ccc(OC(F)(F)F)cc3)no2)nn1Cc1cccc(N2CCC(S(C)(=O)=O)CC2)c1`: the GI50 was greater than 100 µM and the TGI was greater than 100 µM. `C[C@@H](NC(=O)/C(C#N)=C/c1ccc([N+](=O)[O-])cc1)c1ccccc1`: the GI50 is 2.74 µM and the TGI came out at 7.52 µM.

As to `Cc1ccc(-c2cc3c4c(nc5ccccc53)C(=O)c3cccnc3-c4n2)cc1`, the GI50 was 3.73 µM and the TGI is 12 µM. The molecule `COC(=O)[C@H](Cc1c[nH]c2ccccc12)NP(=O)(O)OC[C@H]1O[C@@H](n2cc(C)c(=O)[nH]c2=O)C[C@@H]1N=[N+]=[N-]` displayed a TGI greater than 100 µM. Same read-out and setting: in the case of `O=c1[nH]nc(Cc2ccccc2)n1CCCl` it was greater than 100 µM; in that of `N#Cc1ccc(N2CCOCC2)cc1`, greater than 100 µM; in that of `C=C1CCCC(C)(C)C1CCC1(C)CCC(C(C)C(=O)OC)OO1` (stereo not given), greater than 25 µM. The same measure, in the same setting: the result for `CCOC(=O)c1cc2c3c(c(C(C)=O)c(O)c2[nH]1)N(C(C)=O)CC3` reads greater than 100 µM. With `[Cl][Hg][c]1ccc(Cl)s1`, the GI50 is 14.8 µM and the TGI worked out at 28.7 µM. The matching figures for `CC(=O)Nc1c(I)c(NC(C)=O)c(I)c(C(=O)O)c1I`: greater than 100 µM and greater than 100 µM. `CCC(O)C1Cc2c(C)cc3c(c2O1)C(=O)c1ccccc1C3=O` (stereo not given) came in with a TGI greater than 100 µM.

Regarding `COc1ccc2c(O)c(/C=C3\N=Nc4ccccc43)oc2c1C[C@@H]1CCNC[C@H]1F`, the GI50 was 12.7 µM and the TGI worked out at 27 µM.

`[N-]=[N+]=Nc1c(Cl)c(Cl)nc2ccccc12` returned a TGI of 75.8 µM.

Take `COc1cc(/C=N\c2nc(-c3ccc(NS(=O)(=O)c4ccc(Cl)c(OC)c4)cc3)cs2)ccc1O`: the TGI is greater than 100 µM.

In turn, `O=C1C=CC2(C=C1)CCNC1=C2C(=O)c2ccccc2C1=O` showed a TGI greater than 100 µM.

In the case of `O=c1c2ccccc2nc(/C=C(\O)c2ccncc2)n1-c1ccc(Cl)cc1`, the TGI was greater than 100 µM. Molecule `CN(C)CCNC(=O)c1cccc2c(NC(CS)C(=O)O)c3ccccc3[n+](C)c12` (stereo not given) displayed a TGI greater than 100 µM. For `COC(=O)C1=COC(OC2OC(CO)C(O)C(O)C2O)C2C3CN4CCc5c([nH]c6ccccc56)C4(CC12)O3` (stereo not given), the TGI is greater than 100 µM. In the case of `C/C(CC(=O)Nc1cc(C)ccc1C)=N/N=C(N)N`, the TGI was greater than 100 µM. On to `COc1ccc2c(c1)[nH]c(=O)c1c3ccccc3cn21`, for which the GI50 was 0.0826 µM; the TGI is 2.54 µM and 6.95 µM. The molecule `O=C(OCc1ccc([N+](=O)[O-])cc1)N1c2ccccc2[C@@]23O[C@]24CCC[C@H]3C#C/C=C\C#C[C@H]14` returned a TGI greater than 100 µM. As for `NC1CCCCC1N.O=[Se]([O-])[O-].[Pt+4]` (stereo not given), the GI50 is 0.914 µM and the TGI was greater than 36.9 µM. As to `CC[C@@H](C(=O)[C@H](C)[C@H](O)[C@@H](C)[C@H]1O[C@H]([C@@H](CC)C(=O)N(CC)CC)CC[C@H]1C)C1O[C@]2(C=C[C@@H](O)[C@]3(CC[C@@](C)([C@H]4CC[C@](O)(CC)[C@H](C)O4)O3)O2)[C@H](C)C[C@@H]1C` (stereo not given in full), the GI50 was 2.91 µM and the TGI came to 10.8 µM. For `CC1(C)CC(=O)C2=C(C1)NC1=C(C2)C(=O)CC(C)(C)C1`, the TGI is greater than 100 µM.

`C#C/C=C\CCCCCCCCCCCCCC/C=C\CCCCC#CC(O)C#CCCCC/C=C\CCCCCC/C=C/C(O)C#C` (stereo not given) registered a TGI greater than 75 µM.

For `NNC(=O)CCSc1ccccc1`, the TGI is greater than 100 µM. As for `O=C1NC2C(=CC(O)C(O)C2O)c2cc3c(cc21)OCO3` (stereo not given), the GI50 is 0.314 µM and 0.254 µM; the TGI is 7.54 µM and 4.97 µM. `CCOC(=O)NC/C=C/COC1CCCCO1` (stereo not given) gave a TGI greater than 100 µM. Take `Cc1[nH]c(=O)[nH]c(=O)c1/C=C/C(=O)NC(CO)CS(=O)Cc1ccccc1` (stereo not given): the TGI is greater than 300 µM. Regarding `OC[P+](CO)(CO)C12CC3CC(CC(C3)C1)C2`, the TGI was greater than 100 µM. For the molecule `C[C@]12CC[C@@H]3c4cc(OC(F)F)c(OS(N)(=O)=O)cc4CC[C@H]3[C@@H]1CC[C@@H]2OS(N)(=O)=O`, the GI50 is 2.12 µM and the TGI is 18.9 µM.

Molecule `O=C(Nc1cccc(C(F)(F)F)c1)C(=O)C1NC(=S)NC1=O` (stereo not given) had a TGI greater than 100 µM. Still for that read-out and setting: in the case of `O=c1/c(=C/c2ccc([N+](=O)[O-])o2)sc2n1[C@@H](c1ccc(Cl)cc1)C=C(c1cc(F)c(Cl)cc1Cl)N=2` it was 36.7 µM. As for `Cc1cc(O)cc(C)c1/C=C/c1cncc(C(N)=O)c1`, the GI50 was 8.63 µM and the TGI was greater than 25 µM. Molecule `CCCN(CCC)C(=S)N/N=C/c1ccccn1` came in with a TGI of 17.7 µM. On the same count and under the same terms, the result for `COc1ccc(OC)c(C2CCc3c(cnc4nc(N)nc(N)c34)C2)c1` (stereo not given) reads 17.2 µM; that for `CCOC(=O)C1(N)CCc2[nH][nH]c(=O)c2C1` (stereo not given), greater than 100 µM; that for `CC(=NNC(=S)Nc1cccc(C)c1)c1cccc(C(C)=NNC(=S)Nc2cccc(C)c2)n1`, 37.4 µM. Consider `CCCc1cc(=O)n2c(C(=O)Nc3cccc(C(=O)OCC)c3)c(C(=O)Nc3ccc(F)cc3)sc2n1`, for which the GI50 is 134 µM and the TGI is greater than 140 µM. `CC(N)(/C=C/c1ccccc1)C(=O)O` (stereo not given): the TGI was greater than 100 µM. Take `O=C(Nc1ccc(-n2cc(-c3ccncc3)c(-c3ccc(O)c(Cl)c3)n2)cc1)Nc1ccc(Cl)c(C(F)(F)F)c1`: the GI50 was 4.26 µM and the TGI stood at 22.3 µM.

In turn, `COC(=O)C1=CO[C@@H](OC2OC(CO)C(O)C(O)C2O)[C@H]2[C@@H](C)[C@@H](O)[C@@H](O)[C@@H]12` (stereo not given in full) displayed a TGI greater than 100 µM. The same measure, in the same setting: the result for `CC(=O)OCC1OC(n2c3c(cc(C#N)c2=S)CCC3)C(OC(C)=O)C(OC(C)=O)C1OC(C)=O` (stereo not given) reads greater than 100 µM. `COc1cccc(/C=N/NC(=O)c2ccccc2N2CCCC2)c1O`: the GI50 is 4.67 µM and the TGI is greater than 100 µM. Taken in the same sequence, the figures for `CC(C)(C)[Si](C)(C)OC1[C@@H](O[Si](C)(C)C(C)(C)C)[C@@H](CNC(=O)NC(=O)CF)O[C@H]1n1cnc2c(NC(=O)Nc3ccccc3)ncnc21` (stereo not given in full) were greater than 50 µM and greater than 50 µM. Turning to `C=C1C(=O)O[C@H]2C[C@@H]1CC/C(C)=C/CC/C(C)=C/CC[C@@]2(C)O`, the GI50 was greater than 100 µM and the TGI is greater than 100 µM. With `CCCCC(C(=O)CCC(=O)Nc1ccc(Cl)c(Cl)c1)C(=O)C(C)C` (stereo not given), the TGI was greater than 100 µM. With `Cn1ncc2c(Nc3cccc(Cl)c3)nc(Nc3cccc(Cl)c3)nc21`, the TGI worked out at 45.3 µM.

For `COc1ccc2c(c1)oc(=O)c1cc(OC)ccc12`, the GI50 was greater than 100 µM and the TGI was greater than 100 µM. For the molecule `CCCCNC(=O)C1C(=O)N(CCCC)C(=O)/C1=N\N` (stereo not given), the TGI is greater than 100 µM. `COc1ccc(Cc2c(=O)[nH]nc3ccccc23)cc1` registered a TGI greater than 100 µM. Same read-out and setting: the result for `CC1=NN(c2ccc(S(=O)(=O)O)cc2)C(=O)/C1=C/c1ccc(Cl)cc1` reads greater than 100 µM. Still for that read-out and setting: in the case of `Clc1ccc(CCn2cncn2)cc1` it was greater than 100 µM.

Take `O=C(SC1=NCCN1)c1cccc2ccccc12`: the TGI was greater than 100 µM. Regarding `CN(C)CCCCC(C(=O)CBr)(c1ccccc1)c1ccccc1`, the GI50 was 4.1 µM and the TGI came out at 16.2 µM. `C(=N\Nc1ccccc1)/c1nc2ccccc2nc1/C=N/Nc1ccccc1` gave a TGI greater than 60.5 µM. Turning to `COc1ccc2cc(C(=O)/C=C/c3ccc(N(C)C)cc3)ccc2c1`, the GI50 is greater than 100 µM and the TGI is greater than 100 µM. In the case of `CCOC(=O)C1C(C)C2(C#N)C(=N)OC1(C)C2(C#N)C#N` (stereo not given), the TGI is greater than 100 µM.

In the case of `c1ccc2cc(NCNc3ccc4ccccc4c3)ccc2c1`, the TGI was greater than 70.3 µM.

For `N#CCCCCCOCCOCCOCCOCCOCCCCCC#N`, the TGI is greater than 100 µM.

`CCc1nc(N)nc(N)c1-c1ccc2nnn(O)c2c1` came in with a TGI greater than 100 µM. Same read-out and setting: the result for `O=C1NC(=O)C(C(=O)C(=O)Nc2ccc(Cl)cc2Cl)C(=O)N1` reads greater than 100 µM; that for `Cc1occc1C(=S)Nc1ccc(Cl)c(/C=N/OC(C)(C)C)c1`, 39.8 µM.

On to `COc1ccc(Nc2cc(C)nc(NCc3ccccc3)n2)cc1`, for which the GI50 was 5.09 µM and the TGI is 18.9 µM.

`Cn1cc(C2=C(c3c4n(c5ccccc35)CCC(CN)C4)C(=O)NC2=O)c2ccccc21` (stereo not given): the GI50 is 3.66 µM and the TGI was 7.32 µM. Take `O[C@H]1[C@H](O)[C@@H](O)[C@@]2(O)CC[C@@H]1N2`: the TGI was greater than 100 µM.

(Values after PubChem BioAssay (NCI).)
